Experimental data: paper PMC4336329 (PLoS ONE, 2015)
About 2,200 (0.71%) of roughly 310,000 compounds showed an effect of 50% or more. The effect is printed as a negative number. The list shows a part of the results.

target: human ether-à-go-go-related gene (hERG) potassium channel (human, UniProt Q12809); assay: primary screen, population patch clamp on CHO cells stably expressing hERG
Sequence (Q12809 whole entry, looked up): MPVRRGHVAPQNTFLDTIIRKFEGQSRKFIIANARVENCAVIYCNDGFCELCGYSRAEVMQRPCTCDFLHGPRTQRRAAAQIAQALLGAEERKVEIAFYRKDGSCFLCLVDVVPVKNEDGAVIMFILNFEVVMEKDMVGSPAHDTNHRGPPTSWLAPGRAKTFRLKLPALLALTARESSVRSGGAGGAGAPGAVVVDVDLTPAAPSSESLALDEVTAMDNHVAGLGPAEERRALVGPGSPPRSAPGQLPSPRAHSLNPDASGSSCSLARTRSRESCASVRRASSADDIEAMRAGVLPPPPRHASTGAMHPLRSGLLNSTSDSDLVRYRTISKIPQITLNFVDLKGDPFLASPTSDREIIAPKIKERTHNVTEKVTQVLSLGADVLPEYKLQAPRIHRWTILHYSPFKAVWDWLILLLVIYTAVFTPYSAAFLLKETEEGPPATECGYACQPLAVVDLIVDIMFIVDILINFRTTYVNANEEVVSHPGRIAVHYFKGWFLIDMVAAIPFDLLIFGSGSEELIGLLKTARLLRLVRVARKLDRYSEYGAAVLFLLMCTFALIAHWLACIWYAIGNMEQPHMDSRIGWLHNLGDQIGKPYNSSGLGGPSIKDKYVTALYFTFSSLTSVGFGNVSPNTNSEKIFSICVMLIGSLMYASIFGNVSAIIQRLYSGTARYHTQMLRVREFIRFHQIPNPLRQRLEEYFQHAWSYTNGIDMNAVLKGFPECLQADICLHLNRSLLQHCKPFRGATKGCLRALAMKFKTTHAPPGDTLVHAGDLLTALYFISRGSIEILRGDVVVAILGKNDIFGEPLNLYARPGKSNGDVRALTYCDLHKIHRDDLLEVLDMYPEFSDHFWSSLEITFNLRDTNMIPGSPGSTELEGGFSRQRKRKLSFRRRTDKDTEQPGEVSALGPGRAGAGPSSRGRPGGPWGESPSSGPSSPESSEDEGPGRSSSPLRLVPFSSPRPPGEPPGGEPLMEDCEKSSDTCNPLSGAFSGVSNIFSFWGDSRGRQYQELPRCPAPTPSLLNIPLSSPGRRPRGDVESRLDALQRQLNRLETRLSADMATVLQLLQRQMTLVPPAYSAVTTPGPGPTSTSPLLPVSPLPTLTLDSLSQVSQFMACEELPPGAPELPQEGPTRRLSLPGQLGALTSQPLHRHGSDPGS

Compound	hERG current change (%, negative = inhibition) at 1uM [%]
O=C(C[n+]1cc2ccccc2c2ccccc21)c1ccccc1.[Br-]	-41.7
CCOC(=O)c1c(NC(=S)NC(=O)/C=C/c2cccs2)sc(C)c1C	13.2
O=C1CCCc2nc(NCc3ccco3)ncc21	26.8
NC(=O)Nc1ccc2c(c1)OCCO2	6.12
COc1ccc(C2=CC(=O)C[C@H](c3ccc(Cl)cc3)C2)cc1	6.18
O=C1NC(Cc2ccccc2)c2nc3ccc(Cl)cc3c(=O)n2-c2cc(Cl)ccc21 (stereo not drawn)	12.7
Cc1cc([N+](=O)[O-])c(C(C)(C)C)cc1N	6.92
COc1ccc(N2CCN(C(c3cccs3)C(C)NC(=O)C(=O)N3CCCCC3)CC2)cc1 (stereo not drawn)	5.19
Cn1nc(C(F)(F)F)c(-c2cccc(C(F)(F)F)c2)c1NC(=O)c1cccnc1	5.38
CC1(C)C(C=C(Cl)Cl)C1C(=O)OCc1cccc(Oc2ccccc2)c1 (stereo not drawn)	13.7
CC1CC(C)CN(C(=O)CCCn2c(=S)[nH]c3ccccc3c2=O)C1 (stereo not drawn)	-0.582
CCOC(=O)N1CCN(S(=O)(=O)c2ccc3c(c2)CCN3C(=O)CC)CC1	6.11
CN1/C(=C\C(=O)c2ccccc2Cl)c2ccccc2CC1(C)C	2.56
O=C(CSC1CCCCC1)Nc1ccccc1Br	6.47
O=C(CN1C(=O)NC2(CCc3ccccc32)C1=O)c1c[nH]c2ccccc12 (stereo not drawn)	18.9
O=C(COC(=O)c1cccc(Br)c1)NCCc1ccccc1	4.47
Cc1ccc(N(C)S(=O)(=O)c2cccc(C(=O)NNC(=O)c3ccncc3)c2)cc1	13.8
Cc1ccc(NC(=O)CN2C(=O)S/C(=C\c3ccc(C(=O)O)cc3)C2=O)cc1	20.1
O=C(c1ccc2nc(Cc3cccc(Cl)c3)oc2c1)N1CCOCC1	8.64

Compound	hERG current change (%, negative = inhibition) at 1uM [%]
O=C(CSc1nnc2ccccn12)c1ccc2c(c1)OCCO2	7.62
COCCOC(=O)N/C=C\c1nc2ccccc2c(=O)[nH]1	5.13
CCOCCCNC(=O)CSc1nc2nc(C)c(Cc3ccccc3)c(C)n2n1	10
O=C(C1CCCN1S(=O)(=O)c1cccc2cccnc12)N1CCc2ccccc2C1 (stereo not drawn)	-19.9
N#Cc1cc2c(=O)n3ccccc3nc2n(-c2ccc(Cl)cc2)c1=O	15.8
O=C(NCc1ccccc1)c1ccc(S(=O)(=O)N2CCCc3ccccc32)cc1	13.5
CC(CNC(=O)C(C)(C)C)NC(=O)C(C)(C)C (stereo not drawn)	1.97
O=C(c1cccs1)N1CCN(Cc2nc3ccccc3c(=O)[nH]2)CC1	-8.39
CCn1c(Cc2ccccc2)nnc1SCC(=O)Nc1ccc(OC)cc1	16
COC(=O)c1ccc(NC(=O)N2CCOCC2)cc1	1.42
CCCN(CCC)C(=O)CCS(=O)(=O)c1cccc2nsnc12	1.18
CCOC(=O)N1CCN(S(=O)(=O)c2ccc(C(=O)Nc3nc4ccccc4s3)cc2)CC1	11.8
COc1ccc(/C=N/OCC(=O)OCC(=O)N(C)c2ccccc2)cc1	1.79
O=C(CSc1nnc(NC(=O)c2c(F)cccc2F)s1)NC1CC1	18.3
COc1ccc2nc(N3CCN(C(=O)c4ccc5ncsc5c4)CC3)sc2c1	5.19
CCC(C)(C)n1nnnc1C(c1cc2ccc(C)cc2[nH]c1=O)N(Cc1cccnc1)Cc1ccco1 (stereo not drawn)	-2.99
O=C(NCc1ccco1)c1ccc(-c2cccc(Cl)c2)o1	7.2
COc1cc(C(=O)OCC(=O)NC(=O)NC2CCCCC2)cc(Cl)c1OC	-10.3
Cn1nnnc1SCc1ccc(F)cc1	10.6

Compound	hERG current change (%, negative = inhibition) at 1uM [%]
O=C(CSc1nc2ccccc2c(=O)[nH]1)Nc1ccccc1O	11.2
COc1ccc2cc(C(=O)C3CCCN(C(=O)Cc4c(C)noc4C)C3)ccc2c1 (stereo not drawn)	-34.3
COc1ccc(Nc2cc(C(=O)NCc3ccco3)c3ccccc3n2)c(OC)c1	8.32
N=C1SCC(=O)N1Cc1ccccc1	14.5
O=C(CC1Oc2ccccc2NC1=O)NCCCN1CCOCC1 (stereo not drawn)	-2.74
O=C(Cc1ccc(-n2cnnn2)cc1)NC12CC3CC(CC(C3)C1)C2	-0.38
O=C(c1cnn2c(C(F)F)cc(C3CC3)nc12)N1CCc2ccccc2C1	1.43
CC(=O)c1cccc(N(CC(=O)Nc2ccc(S(=O)(=O)N3CCOCC3)cc2)S(C)(=O)=O)c1	8.68
C=CCOc1cccc(C2C(C(=O)c3ccc(C)o3)=C(O)C(=O)N2c2nccs2)c1 (stereo not drawn)	15.8
CCCCN(C(=O)c1cnc(C)cn1)c1c(N)n(CCC)c(=O)[nH]c1=O	9.52
COc1ccc(CNC(=O)c2ccc(Cn3nc(C)cc3C)o2)cc1	26.5
O=C(CSc1ccccc1)Nc1ccc(S(=O)(=O)NCC2CCCO2)cc1 (stereo not drawn)	14.2
Cc1ccc(NC(=O)c2sc(N)nc2-c2ccccc2)cc1C	7.85
COc1ccccc1CCNC(=O)c1csc2c1CCCC2	10.5
COc1cccc(-n2c(C)n[nH]c2=O)c1	10.2
O=C(Nc1ccccc1C(=O)N1CCOCC1)c1noc2c1CCCC2	-1.97
CCCc1nc2ccccc2c(=O)n1-c1ccc(C(=O)OCC)cc1	10.4
COc1ccccc1CNC(=O)CCCNC(=O)Cn1cnc2sc(C)c(C)c2c1=O	18.2
O=C(CCc1nnc(Cc2cccc(C(F)(F)F)c2)o1)NC1CC1	12.6
